Test results as given in publication PMC4336329 (PLoS ONE, 2015).
Among all 310,000 compounds or so, about 2,200 (0.71%) showed an effect of 50% or more. Effects have a minus sign here. The list shows a part of the results.

Target: human ether-à-go-go-related gene (hERG) potassium channel (human, UniProt Q12809)
Assay: primary screen, population patch clamp on CHO cells stably expressing hERG

human ether-à-go-go-related gene (hERG) potassium channel, sequence (Q12809 whole entry, looked up): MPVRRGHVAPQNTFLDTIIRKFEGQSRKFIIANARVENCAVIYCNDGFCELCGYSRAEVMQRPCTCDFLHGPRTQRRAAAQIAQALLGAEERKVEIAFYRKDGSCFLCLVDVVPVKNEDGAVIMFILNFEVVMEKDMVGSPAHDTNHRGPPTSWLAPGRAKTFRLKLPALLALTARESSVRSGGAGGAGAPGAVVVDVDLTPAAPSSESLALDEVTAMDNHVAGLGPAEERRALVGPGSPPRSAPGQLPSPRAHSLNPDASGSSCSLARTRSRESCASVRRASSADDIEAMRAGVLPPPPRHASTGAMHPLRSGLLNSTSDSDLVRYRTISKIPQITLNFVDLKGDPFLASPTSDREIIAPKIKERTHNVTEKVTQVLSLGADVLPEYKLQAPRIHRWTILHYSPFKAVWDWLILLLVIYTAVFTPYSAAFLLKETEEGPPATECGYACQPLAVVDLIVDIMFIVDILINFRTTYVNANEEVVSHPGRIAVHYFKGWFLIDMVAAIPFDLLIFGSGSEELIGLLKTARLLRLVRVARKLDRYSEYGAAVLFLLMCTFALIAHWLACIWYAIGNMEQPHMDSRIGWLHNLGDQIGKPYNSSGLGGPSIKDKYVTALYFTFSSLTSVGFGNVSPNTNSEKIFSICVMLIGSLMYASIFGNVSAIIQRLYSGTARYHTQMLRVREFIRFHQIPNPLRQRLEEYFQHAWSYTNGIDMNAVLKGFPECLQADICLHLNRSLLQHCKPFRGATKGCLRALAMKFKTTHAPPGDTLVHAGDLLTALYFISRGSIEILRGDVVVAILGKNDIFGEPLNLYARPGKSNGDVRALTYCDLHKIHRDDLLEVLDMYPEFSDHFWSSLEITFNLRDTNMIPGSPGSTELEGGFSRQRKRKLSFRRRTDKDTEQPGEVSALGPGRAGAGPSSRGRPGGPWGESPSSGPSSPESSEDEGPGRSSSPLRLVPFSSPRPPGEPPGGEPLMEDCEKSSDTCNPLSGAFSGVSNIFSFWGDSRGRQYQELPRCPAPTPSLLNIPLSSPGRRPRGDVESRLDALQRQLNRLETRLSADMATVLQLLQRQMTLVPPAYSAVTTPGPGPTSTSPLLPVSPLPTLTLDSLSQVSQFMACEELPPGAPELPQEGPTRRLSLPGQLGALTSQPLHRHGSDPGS

Point of comparison: `Cc1ccc2c(n1)sc1c(-c3ccc(Br)cc3)c(C#N)c(N)nc12`, “hERG current change (%, negative = inhibition) at 1uM” value 9.19%. Against it:
- O=c1cc(-c2ccccc2Cl)oc2c(Br)ccc(O)c12 — higher, 9.41%
- O=C(c1cccs1)N1CCc2c([nH]c3ccccc23)C1c1ccccn1 (stereo not shown) — lower, -6.08%
- COc1cc([N+](=O)[O-])ccc1NC(=O)/C=C\C(=O)O — lower, 6.98%
- COc1ccc(CCNC(=O)c2ccccc2NC(=O)C2=C(C)OCCS2)cc1OC — higher, 18.8%
- Cc1ccccc1-n1c(SCC(=O)N2CCN(c3ccccc3)CC2)nnc1-c1ccncc1 — lower, -3.12%
- COc1ccc(S(=O)(=O)NC(C)C(=O)O)cc1 (stereo not shown) — lower, 7.44%
- CC1CCc2sc(C(=O)OCC(=O)NC(N)=O)cc2C1 (stereo not shown) — higher, 14.3%
- CC(C)C(c1nnnn1Cc1ccccc1)N1CCc2ccccc2C1 (stereo not shown) — lower, 5.26%
- CCN1CCN(CCNC(=O)c2ccc(CS(=O)(=O)c3ccccc3C)o2)CC1 — lower, 1.06%
- CN(C)CCNC(=O)/C(=C/c1ccc(-c2cccc([N+](=O)[O-])c2)o1)NC(=O)c1ccccc1 — lower, -37.2%
- CCOc1ccc(/C=C(\C(=O)O)c2ccc(S(=O)(=O)N3CCOCC3)s2)cc1OC — lower, 3.65%
- COc1cc(OC)cc(-c2c(-c3cccs3)c3cc(-c4cnc(OC)nc4)ccc3n2C)c1 — higher, 10.2%
- O=c1[nH]cnc2sc3c(c12)CCCCC3 — lower, -0.54%
- C[C@H](CCC(=O)[O-])[C@H]1CC[C@H]2[C@@H]3[C@H](O)C[C@@H]4C[C@H](O)CC[C@]4(C)[C@H]3C[C@H](O)[C@]12C.O.[Na+] — higher, 11.6%
- O=c1c(Cc2ccc(Cl)cc2)c(O)ccn1Cc1cccs1 — higher, 10.3%
- CC1(C)Cc2c(sc3[nH]c(=S)n(Cc4ccccc4)c(=O)c23)CO1 — lower, 8.74%
- CC(=O)NCC(=O)N(c1c(C)n(C)n(-c2ccccc2)c1=O)C1(C(=O)NC2CCCC2)CCCCC1 — higher, 10.6%
- COc1nccnc1NS(=O)(=O)c1ccc(NC(=S)NC(=O)c2cccnc2)cc1 — higher, 15%
- CC(C)(C)c1ccc(C(=O)N2CCCCCC2=O)cc1 — lower, 8.85%
- Cc1c(C(=O)NCc2cccnc2)sc2nc(-c3ccc(F)cc3)cn12 — lower, -26.1%
- O=C(O)C1C2C=CC(O2)C1C(=O)Nc1ccc(S(=O)(=O)N2CCc3ccccc32)cc1 (stereo not shown) — higher, 24.4%
- O=C(Nc1ccccc1N1CCOCC1)c1cc(=O)[nH]c2ccccc12 — lower, 4.47%
- COc1ccc(-n2c(C)cc(C(=O)CN3C(=O)c4ccccc4C3=O)c2C)cc1 — higher, 13.5%
- O=C(Nc1ccc(OC(F)(F)F)cc1)Oc1ccccc1N1CCCCC1 — higher, 10.3%
- COc1cc(C)ccc1OCCCCNCc1ccccc1.O=C(O)C(=O)O — higher, 14.2%
- Cc1cccn2c(=O)c3cc(C(=O)NC4CCCCC4)c(=N)n(Cc4ccccc4)c3nc12 — lower, -40.2%
- O=C(NCCCN1CCc2ccccc2C1)C1CCN(c2nnc(-n3cccc3)s2)CC1 — lower, -20.7%
- CCC(=O)N1c2ccccc2NC2=C(C(=O)CCC2)C1c1ccc(N(C)C)cc1 (stereo not shown) — lower, 6.1%
- O=C(/C=C/Nc1ccccc1C(F)(F)F)c1ccco1 — lower, 7.89%
- N#CC1C=Cc2ccccc2N1C(=O)c1ccccc1 (stereo not shown) — higher, 11.4%
- CCOc1ccccc1N1CCN(S(=O)(=O)CC)CC1 — lower, 9.07%
- COc1ccc(-c2cc(=O)oc3c(C)c(OCC(=O)NCC4CCC(C(=O)O)CC4)ccc23)cc1 (stereo not shown) — lower, 3.63%
- CC(=O)c1ccc(OC(NC(=O)Cc2ccccc2)C(Cl)(Cl)Cl)cc1 (stereo not shown) — lower, 1.7%
- O=C(CNC(=O)c1ccccn1)N/N=C/c1ccccc1 — lower, 3.82%
- Nc1n[nH]c(N)c1N=Nc1ccccc1 — lower, 3.03%
- COc1cccc(NC(=O)Nc2ccc(C)c(Cl)c2)c1 — lower, 6.29%
- O=C(NCc1nc2ccccc2[nH]1)C1=C[C@H](C2CC2)C[C@H](OCc2ccc(CO)cc2)O1 — lower, 5.95%
- CCc1ccccc1NCC(=O)Nc1ccccc1C(=O)OC — lower, 5.18%
- Cc1ccc(NC(=O)CN2CCC(NC(=O)Cc3ccccc3)CC2)cc1C — lower, -1.89%
- CC(=O)Nc1nnc(SCc2ccccc2F)s1 — higher, 13.1%
- COc1ccc(C(=O)O)cc1NC(=S)NC(=O)CSc1ccc(Cl)cc1 — lower, -0.389%
- COc1ccc(N(C(=O)c2ccco2)C(C(=O)NC2CCCC2)c2cccnc2)c(OC)c1 (stereo not shown) — lower, 7.17%
- COC(=O)C1=C(c2ccc(OC(F)(F)F)cc2)C[C@@H]2CC[C@H]1N2C(=O)NCc1cc(C)oc1C(F)(F)F — higher, 14.7%
- COc1ccc(C(C)(C)C)cc1NC(=O)c1[nH]c(C)c(C(C)=O)c1C — lower, 8.8%
- CCc1nnc(NC(=O)CSc2nc3c(c(=O)n2C)SC(C)C3)s1 (stereo not shown) — lower, 7.03%
- COc1cccc(C2CC(c3ccccc3OC)n3ncnc3N2)c1 (stereo not shown) — lower, -0.386%
- COCc1ccc(C(=O)N2CCCC(N(C)Cc3ccccc3)C2)s1 (stereo not shown) — higher, 11.1%
- COc1ccc(-n2c(Cc3cccn3C)nnc2SCC(=O)Nc2ccccc2)cc1 — lower, -4.09%
- COc1ccc(CCN(Cc2cc3ccc(C)cc3[nH]c2=O)C(C)=O)cc1OC — lower, -26.6%
- CCCCOC(=O)Cn1c(=O)c2c(nc(Br)n2Cc2ccccc2)n(C)c1=O — lower, -6.02%
- CCOc1ccccc1OCCOc1cccc(C(F)(F)F)c1 — higher, 13.6%
- Cc1onc(-c2ccccc2)c1C(=O)NNC(=S)NC(=O)c1ccc(Cl)cc1Cl — lower, 2.99%
- O=c1cc(CSc2nnnn2-c2ccccc2)[nH]c2[nH]n(-c3ccccc3)c(=O)c12 — lower, -0.986%
- Cc1ccc(C2CC(c3cccs3)=NN2C(=O)CSc2nc3ccccc3o2)cc1 (stereo not shown) — higher, 16.9%
- NS(=O)(=O)c1ccc(N=Cc2c(O)n(-c3ccccc3)c(=O)[nH]c2=O)cc1 — higher, 11.9%
- COc1ccccc1CNC(=O)C1CCC(CNS(=O)(=O)c2ccc(C)cc2)CC1 (stereo not shown) — higher, 18%
- COc1cccc(NC(=O)c2cnc(SC)nc2)c1 — higher, 16.1%
- CC(C)C1N=C(c2ccc3c(c2)OCO3)CC(c2ccccc2O)N1 (stereo not shown) — lower, -2.54%
- CC1=C(C(=O)Nc2ccccc2F)C(c2ccsc2)C2=C(CC(c3ccccc3)CC2=O)N1 (stereo not shown) — lower, -4.79%
- C=CCn1c(SCC(=O)Nc2ccc(Br)cc2)nc(O)c(CC)c1=O — lower, 0.7%
- COc1cccc(C(=O)NC2CC3CCCC(C2)N3S(=O)(=O)c2ccccc2)c1 (stereo not shown) — lower, -8.93%
- CCCCNC(=O)c1cccc(NC(=O)C(=O)c2ccccc2NC(C)=O)c1 — higher, 14%
- CCN(CC)S(=O)(=O)c1cccc(NC(=O)C2SC(=Nc3ccc(C)cc3C)C(C(=O)NCC3CCCO3)=C2N)c1 (stereo not shown) — lower, 3.68%
- O=C(CNC(=O)c1ccccc1Cl)Nc1ccncc1 — higher, 11.5%
- COc1cccc(C2CC(C(F)(F)F)n3ncc(C(=O)Nc4c(C)n(C)n(-c5ccccc5)c4=O)c3N2)c1 (stereo not shown) — higher, 12%
- CC(C)(C)OC(=O)NNC(=O)C12CC3CC(CC(C3)C1)C2 — lower, 6.73%
- NC(=O)COC(=O)c1ccccc1OCc1ccc(Cl)cc1 — lower, 7.36%
- Cn1ncc2c(N3CCCCC3)nc(NCCCO)nc21 — higher, 15.4%
- O=C(N/N=C/c1ccc([N+](=O)[O-])o1)c1ccccc1NS(=O)(=O)c1cccs1 — lower, -3.77%
- Cc1nc(SCC(=O)c2ccccc2)c([N+](=O)[O-])[nH]1 — higher, 12.7%
- CCC(c1nnnn1Cc1cccs1)N1CCN(C2CCCC2)CC1.Cl (stereo not shown) — lower, 4.77%
- COc1ccc(OC)c(NC(=O)CCN2CCN(CCO)CC2)c1 — higher, 10.9%
- Cc1ccc2c(C)c(C(=O)NCC(C)(C)N3CCOCC3)oc2c1C — lower, -0.765%
- O=C(O)c1ccc(Cl)c(S(=O)(=O)NCc2ccco2)c1 — higher, 9.31%
- COc1cc(NC(=O)CCS(=O)(=O)c2ccc3c(c2)oc(=O)n3C)cc(OC)c1 — lower, -7.08%
- O=C(NCCc1ccccc1)c1ccc(Cl)c([N+](=O)[O-])c1 — lower, -3.49%
- COc1ccc(CNC(=O)CN(CC2CCCO2)C(=O)CNS(=O)(=O)c2ccc(C)cc2)cc1 (stereo not shown) — lower, 1.68%
- CNS(=O)(=O)c1cccc(C(=O)NCC(c2ccco2)N(C)C)c1 (stereo not shown) — lower, 6.66%
- Cn1c(=O)c2ccccc2n(CC(=O)NC2CCCC2)c1=O — lower, 7.21%
- C/C(CC(=O)Nc1ccc(F)cc1)=N\NC(=O)COc1ccccc1 — lower, 8.91%
- Cc1ccc(C(=O)Nc2cccnc2Oc2ccc(Cl)cc2)cc1 — higher, 11.1%
- Cc1ccc2c(C)c(C(=O)NCCN3CCOC3=O)oc2c1C — lower, 6.97%
- O=C(CCN1CCOCC1)Nc1ccc(Br)cc1C(=O)c1ccccc1 — lower, -0.737%
- COc1ccc(CCn2c(O)c(C=NCCN3CCCCC3)c(=O)[nH]c2=O)cc1OC — lower, -3.3%
